# Measured values from PubChem BioAssay AID2546 (National Center for Advancing Translational Sciences (NCATS), 2010).
# Values joined by “and” are separate entries in the source; they are usually repeats but may differ in a detail not shown here. Identical values can stand only once. Screen size: about 310,000 compounds; about 11,000 (3.5%) were called active. This list was built around the results that the source calls inconclusive (neither active nor inactive); the mix of calls is not that of the screen. The call rests on the fitted dose curve; in most records, active means well fitted inhibition curve with a large enough effect; inconclusive means small, poorly fitted or top-dose-only effect, or effect the other way; inactive means flat fitted curve, though single readings scatter. Potencies of inconclusive entries are left out as doubtful fits.
# Assay: VP16 counterscreen qHTS for inhibitors of ROR gamma transcriptional activity;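 further: Gal4-VP16 expression switched on by copper sulfate through the metallothionein promoter; nearly all actives have a fitted effect of over 50% in size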
# Settings: Drosophila S2 Gal4-VP16 UAS-luciferase, luminescence, 20 h; series mostly up to 53.6 µM
# On the % scale 0 is the no-effect control and ±100 the full control effect; potency means the concentration at half of the fitted maximal effect; tags describe the fitted curve by direction and shape.
SMILES,Potency,"activity, negative = inhibition"
C=CCn1c(=O)c(C(=O)NCc2ccccc2)c(O)c2ccccc21,"inconclusive [inhibitor, single point]",–
C=CCn1c(-c2ccc([N+](=O)[O-])cc2)n[nH]c1=S,"inconclusive [inhibitor, single point]",–
CCN1C[C@]2(C)CC[C@H](O)[C@@]34C5C[C@@H]6[C@@H](OC)C[C@@](O)(C5[C@H]6O)[C@@H](CC23)[C@@H]14 (stereo partly specified),inactive,–
CC(=O)N1N=C(c2c(O)n(C)c(=O)n(C)c2=O)CC1c1ccccc1 (stereo unspecified),"inconclusive [inhibitor, single point]",–
Cc1ccc(Cn2nc(C(=O)Nc3ccc(Br)cc3)cc2C)cc1,"inconclusive [inhibitor, single point]",–
Cc1cccc(C)c1NC(=O)CN(C)CC(=O)Nc1ccc(C#N)c(Cl)c1,"inconclusive [inhibitor, single point]",–
Cc1cc(C)cc(N2C(=O)NC(=O)/C(=C\C=C\c3ccco3)C2=O)c1,active: 10 µM,–
CN1C(=O)/C(=C\c2ccc(Br)s2)C(=O)NC1=S,"inconclusive [inhibitor, single point]",–
Cc1ccc(C(=O)Nc2nc3ccccc3n2CCN2CCCC2)cc1,active: 7.08 µM,–
CCCCn1c(O)c(C(C)=NCCc2c[nH]c3ccccc23)c(=O)[nH]c1=O,"inconclusive [inhibitor, single point]",–
O=C(Oc1ccc2cc(Br)ccc2c1)N1CCCCCC1,"inconclusive [inhibitor, single point]",–
CN1CCc2nc(SCc3cccc(Br)c3)c(C#N)cc2C1,inactive,–
O=c1[nH]c(=S)n(CCC2=CCCCC2)c(O)c1C=NCc1cccnc1,inactive,–
CC(C)C[C@H](NC(=O)[C@H](Cc1ccccc1)NC(=O)CNC(=O)[C@@H](COC(C)(C)C)NC(=O)[C@@H](N)Cc1ccc(O)cc1)C(=O)N[C@H](C(=O)O)[C@@H](C)OC(C)(C)C,inactive,–
C[C@@H]1C[C@H]2OC(=O)C3(CO3)[C@H]2[C@H](O)[C@]2(C)C(=O)C3OC3[C@@H]12 (stereo partly specified),"inconclusive [inhibitor, single point]",–
Cc1ccc(Sc2ccc(C=C3C(=O)N(C)C(=O)N(C)C3=O)o2)cc1,inactive,–
O=C(N/N=C/c1c(O)n(C2CCCCC2)c(=S)[nH]c1=O)c1ccccc1,"inconclusive [inhibitor, partial curve, poor fit]",–
CC(C)CCn1c(=O)c(C(=O)NCc2ccc3c(c2)OCO3)c(O)c2ccccc21,"inconclusive [inhibitor, single point]",–
Cc1cc(SCc2sc(-c3ccc(C(F)(F)F)c(F)c3)nc2C)ccc1OCC(=O)O,"inconclusive [inhibitor, single point]",–
Cn1cnc([N+](=O)[O-])c1Sc1ccc([N+](=O)[O-])cc1,"inconclusive [inhibitor, single point]",–
OCCN1CCN(CCCN2c3ccccc3Sc3ccc(C(F)(F)F)cc32)CC1,"inconclusive [inhibitor, single point]",–
Cc1cccc(N2C(=O)NC(=O)/C(=C\c3cnn(-c4ccccc4)c3)C2=O)c1,active: 12.6 µM,–
CC/C(=C\C=C\[C@@H]1C=C[C@@H]2CCC[C@H]2[C@@H]1C(=O)c1ccc[nH]1)[C@@H]1O[C@@H]([C@@H](C)C(=O)O)CC[C@@H]1C,active: 10 µM,–
S=c1[nH]nc(C2CC2)n1Cc1ccccc1,"inconclusive [inhibitor, single point]",–

SMILES,Potency,"activity, negative = inhibition"
O=C(CSC1c2ccccc2-c2ccccc21)N/N=C/c1ccccc1O,active: 17.8 µM,–
Nc1cc(Cl)ccc1Cl,inactive,–
O=C(O)c1cccc2c1NC(C(=O)O)C1CC(Sc3ccccc3[N+](=O)[O-])C(Cl)C21 (stereo unspecified),inactive,–
O=c1c2ccccc2nc(CN2CCCCCC2)n1-c1ccc(F)cc1,"inconclusive [activator, partial curve]",–
O=c1[nH]c(=S)n(Cc2ccc(F)cc2)c(O)c1C=NCC1CCCO1 (stereo unspecified),inactive,–
COC(=O)c1ccc(COC(=O)c2nn(C)c(=O)c3ccccc23)cc1,"inconclusive [inhibitor, single point]",–
O=C(Nc1cc(C(F)(F)F)cc(C(F)(F)F)c1)c1cc(Cl)ccc1O,active: 631 nM and active: 1 µM,–
FC(F)(F)c1ccc2c(c1)ncn2C1CCN(Cc2nnnn2C2CCCCC2)CC1,"inconclusive [inhibitor, partial curve]",–
CCN1CCN(c2cc(N3CCCC3)c([N+](=O)[O-])cc2F)CC1,"inconclusive [activator, single point]",–
Cc1ccc(O)c(C(=O)c2cc(C(=O)NCCC(C)C)c(=O)n(CCC(C)C)c2)c1,–,inactive: -10.6% [at 10 µM]
CC(C)NS(=O)(=O)c1ccc(OCC(=O)N2CCN(Cc3ccccc3)CC2)c(Cl)c1,active: 20 µM,–
CCn1ccnc1CN1CCCC(C(=O)c2cc(F)ccc2OC)C1 (stereo unspecified),active: 15.8 µM,–
COc1cccc(NP(=O)(Oc2ccc(Cl)cc2)Oc2ccc(Cl)cc2)c1,"inconclusive [inhibitor, single point]",–
COc1ccc(CNC(=O)CCC(=O)N2C[C@H]3C[C@H](C2)c2cccc(=O)n2C3)cc1,inactive,–
C=CCn1c(O)c(/C=C2/C=c3ccccc3=N2)c(=O)[nH]c1=S,"inconclusive [inhibitor, single point]",–
O=C(Cc1coc2cc3c(cc12)CCC3)OCC(=O)N1CCCC1=O,"inconclusive [inhibitor, single point]",–
CC[C@H](Oc1ccc(Cl)cc1)C(=O)OC1C[C@H]2CC[C@@H](C1)N2C (stereo partly specified),inactive,–
ClC1=C(Cl)C(Cl)(C2(Cl)C(Cl)=C(Cl)C(Cl)=C2Cl)C(Cl)=C1Cl,active: 7.08 µM,–
Cc1c(C(=O)Nc2ccccc2)c2cc(O)ccc2n1Cc1ccccc1,"inconclusive [activator, partial curve]",–
S=c1[nH]nc(-c2ccco2)n1/N=C/c1cccs1,"inconclusive [inhibitor, partial curve]",–
CC1=C[C@H]2[C@]3(O)C(C=C(CO)C[C@]2(O)C1=O)[C@@H]1C(C)(C)[C@]1(O)[C@H](O)[C@H]3C (stereo partly specified),inactive,–
CN1C(=O)COc2c(C(=O)NC3CN4CCC3CC4)cc(Cl)cc21 (stereo unspecified),inactive,–
O=C1NC(=O)N(Cc2ccccc2)C(=O)/C1=C/C=C/c1ccco1,active: 12.6 µM,–
CCn1c(=O)oc2cc(NC(=O)CCl)ccc21,"inconclusive [inhibitor, single point]",–

SMILES,Potency,"activity, negative = inhibition"
Cc1cc(C)cc(NC(=S)NC2CC3CCCC(C2)N3Cc2cccs2)c1 (stereo unspecified),"inconclusive [inhibitor, single point]",–
O=c1[nH]c(=S)n(C2CC2)c(O)c1/C=N/Nc1cccc2ccccc12,"inconclusive [inhibitor, single point]",–
O=[N+]([O-])c1ccc(N2CCOCC2)c2cccnc12,inactive,–
CN(CC(=O)Nc1ccc(N2CCOCC2)cc1)CC(=O)Nc1cccc(C#N)c1,"inconclusive [activator, single point]",–
CCCCCCCSc1cc(OC)c(CCN(C)C)cc1OC,"inconclusive [inhibitor, single point]",–
COc1cc(/C=C/[N+](=O)[O-])ccc1OC(=O)c1cccnc1,active: 3.55 µM,–
S=C=Nc1ccccn1,"inconclusive [inhibitor, single point]",–
COc1cc(/C=C2/C(=O)N(c3ccccc3)N=C2C)ccc1OS(=O)(=O)c1ccccc1,"inconclusive [inhibitor, single point]",–
Oc1cccc2nc3ccccc3nc12,active: 5.01 µM,–
O=[N+]([O-])OC1CO[C@H]2C(O[N+](=O)[O-])COC12 (stereo partly specified),inactive,–
COc1cccc(OCc2cc(C(=O)N3C[C@H]4C[C@@H](C3)c3cccc(=O)n3C4)no2)c1,"inconclusive [inhibitor, single point]",–
CCn1cc(CN(C)S(=O)(=O)c2ccc3ccccc3c2)c(C)n1,"inconclusive [inhibitor, single point]",–
CC(C)(C)c1cc([N+](=O)[O-])cc(C(C)(C)C)c1O,active: 4.47 µM,–
Cc1ccccc1-n1c(O)c(/C=N/c2nccs2)c(=O)[nH]c1=O,inactive,–
CN1CCC2(CC1)N=C(c1ccc(F)cc1)C(=S)N2,inactive,–
CCCCC(=O)N/N=C/c1c(O)n(CCCC)c(=S)[nH]c1=O,"inconclusive [inhibitor, partial curve, poor fit]",–
O=C(Oc1ccccc1)c1cccc(COC(=O)c2cnccn2)c1,"inconclusive [inhibitor, single point]",–
O=C(c1ccncc1)N1CCC2(CC1)CN(Cc1ccccc1)C2,inactive,–
CCCCn1c(=O)c(C(=O)Nc2ccccc2C)c(O)c2ccccc21,inactive,–
O=C1/C(=C/c2ccc(F)cc2)Oc2cc(OC(=O)N3CCOCC3)ccc21,"inconclusive [activator, single point]",–
Cc1cccc(-n2c(O)c(C)c(=O)[nH]c2=S)c1,inactive,–
O=C1NC(=O)C(CCc2ccccn2)(Cc2cccc(Cl)c2Cl)C(=O)N1c1ccc(Br)cc1 (stereo unspecified),"inconclusive [activator, single point]",–
CC(=O)Oc1ccc(Cl)c2cccnc12,active: 0.708 µM,–
